The results in this text go back to PubChem BioAssay AID686979 (National Center for Advancing Translational Sciences (NCATS), 2013).

The whole screen tested about 420,000 compounds, of which about 50,000 (12%) were called active. Roughly 26% stayed inconclusive and do not appear here. Calls follow the shape of the dose curve; as a rule, active = well fitted inhibition curve with a large enough effect; inconclusive = small, poorly fitted or top-dose-only effect; inactive = flat fitted curve, though single readings scatter. The list shows a part of the results, in another mix than the full data. Some structures have more than one record in an assay (separate samples or runs), and their calls can disagree.
% is scaled to controls: 0 for no effect and ±100 for the full control effect; potency is read from the fitted curve at half-maximal effect.

The test is described as follows: qHTS for Inhibitors of human tyrosyl-DNA phosphodiesterase 1 (TDP1): qHTS in cells in presence of CPT. Also: nearly all actives have a fitted effect of over 55% in size. Conditions: chicken DT40 Tdp1-/-;hTDP1 cells + 20 nM CPT, ATP luminescence, 48 h; series mostly up to 46.2 µM; activity change, negative = growth inhibition: at the top concentration. An outline of the steps: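 Chicken DT40 Tdp1-/- cells stably complemented with human TDP1 were seeded at 400 cells/well in medium containing 20 nM camptothecin, exposed to pin-transferred compounds, and grown at 37 °C for at least 48 hr. Viability was read as ATP luminescence.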
Background: Quantitative high-throughput screening tests each substance at several concentrations.
Turning to `C=CCOc1cccc(CNCCCN2CCOCC2)c1`, the “activity change, negative = growth inhibition” value was inactive: 34.3%.
Still for that read-out and setting: with `CC(C)=CCN1CCN(Cc2coc3ccc(C)cc3c2=O)CC1CCO` (centres undefined) the figure was inactive: 47.1%; with `COc1cc([N+](=O)[O-])ccc1N`, inactive: 37.7%.
Regarding `CC(C)c1ccc(NC(=O)CCNS(=O)(=O)c2cccc3nsnc23)cc1`, the “activity change, negative = growth inhibition” value is inactive: -29.7%.
In the case of `O=C(O)CCN1C(=O)C2C3CC(C2C1=O)C1C(c2ccccc2)c2sc(=O)[nH]c2SC31` (centres undefined), the “activity change, negative = growth inhibition” value is inactive: -0.579%.
For `O=C(NC1CC1)C1=C[C@@H](c2ccccc2)C[C@@H](OCc2ccc(CO)cc2)O1`, the “activity change, negative = growth inhibition” value was inactive: -0.796%.
Take `Clc1ncc(C#Cc2ccccc2)c2ncncc12`: the Potency was active: 1.41 µM.
For `Cc1ccc(N2C(=O)C3NN=C(C(=O)OCc4ccccc4)C3C2=O)cc1` (centres undefined), the “activity change, negative = growth inhibition” value was inactive: 31.5%.
Still for that read-out and setting: under `O=C(COCc1cc(-c2ccc3c(c2)OCO3)on1)N1CCN(c2ccccc2)CC1` stands inactive: -22.8%.
In the case of `CC12CCC(CC1)C(C)(C)O2`, the Potency result was “inactive”.
In the case of `CCOC(=O)C1=C(C)Nc2nc(SCC(=O)OC)nn2C1c1cc(F)cc(F)c1` (centres undefined), the “activity change, negative = growth inhibition” value is inactive: -14.7%.
On the same count and under the same terms, under `C(#Cc1ccccc1)CN1CCN(c2ccccn2)CC1` stands inactive: -1.66%; under `CCCCNC(=O)C1CCC(CNS(=O)(=O)c2ccc(NC(C)=O)cc2)CC1` (centres undefined), inactive: -9.74%; under `Cc1cc(C)c(NC(=O)CSc2nnc(CNC(=O)c3ccccc3F)o2)c(C)c1`, inactive: 4.7%.
As for `COC(=O)[C@@H]1C[C@@]2(O)[C@H](O)[C@H](O)[C@H](O)C[C@H]2N1Cc1ccc(-c2ccccc2)cc1`, the “activity change, negative = growth inhibition” value is inactive: -28.8%.
As to `Cn1nnc2ccccc2c1=O`, the “activity change, negative = growth inhibition” value is inactive: 37.4%.
With `CC#CCOC(=O)C1=CCCN(C)C1`, the “activity change, negative = growth inhibition” value is inactive: 19.9%.
Consider `COc1cccc(N2CCN(C(=O)c3ccc(CS(=O)c4ccc(Cl)cc4)o3)CC2)c1` (centres undefined), for which the Potency was active: 0.731 µM.
For `C[C@H](CO)N1C[C@H](C)[C@@H](CN(C)S(=O)(=O)c2ccc(Cl)cc2)OCc2cnnn2CCCC1=O`, the “activity change, negative = growth inhibition” value is inactive: 5.59%.
Take `CCN(CC)C(=O)c1cccc(-c2csc(C(C)(O)c3ccc(OC)cc3)n2)c1` (centres undefined): the Potency was active: 5.8 µM.
On the same count and under the same terms, under `CC(C)(C)c1ccc(/C=C(\c2nc3ccccc3[nH]2)S(=O)(=O)c2ccccc2)cc1` stands active: 23.1 µM.
Consider `C[C@H](CO)N1C[C@H](C)[C@@H](CN(C)C(=O)Nc2ccc(N3CCN(C)CC3)cc2)OCc2cnnn2CCCC1=O`, for which the “activity change, negative = growth inhibition” value was inactive: -12%.
Turning to `CCCc1cc(=O)n2[nH]c(NCc3c(F)cccc3Cl)nc2n1`, the “activity change, negative = growth inhibition” value was inactive: -16.4%.
Turning to `COc1ccc(N2C(=S)NC3c4cc(Cl)ccc4OC2(C)C3C(=O)N(C)C)cc1` (centres undefined), the Potency is active: 29.1 µM.
With `c1ccc([C@H]2CN3CCSC3=N2)cc1`, the “activity change, negative = growth inhibition” value was inactive: -2.43%.
Regarding `COc1ccc(NC(=O)c2ccco2)cc1NC(=O)C(C)(C)Oc1ccc(Cl)cc1`, the Potency is active: 18.4 µM.
On to `Cc1ccc(C(F)(F)F)cc1NC(N)=S`, for which the “activity change, negative = growth inhibition” value was inactive: 2.78%.
With `CC(=O)N1CCC[C@H]1C(=O)O`, the “activity change, negative = growth inhibition” value is inactive: -16.7%.
Still for that read-out and setting: under `Cc1ccc(S(=O)(=O)N2CN(CC3CCCO3)c3nc4ccccc4nc32)cc1` (centres undefined) stands inactive: -15%.
Consider `O=C(Nc1cccc(OC(F)(F)F)c1)C1Cc2c(-c3ccc4c(c3)OCO4)ccnc2O1` (centres undefined), for which the Potency was active: 16.4 µM.
As to `COc1ccc(C2CNC(=O)C2)cc1OC1CCCC1` (centres undefined), the Potency entry is “inactive”.
On to `C=C[C@]1(C)CC(=O)[C@@]2(O)[C@@]3(C)C(O)CCC(C)(C)C3C(O)C(OC(C)=O)[C@@]2(C)O1` (some centres undefined), for which the “activity change, negative = growth inhibition” value was inactive: 7.89%.
With `C/C(N)=C(/C#N)C(=O)CSc1nnc(COc2ccccc2Cl)o1`, the “activity change, negative = growth inhibition” value is inactive: -25.3%.
As for `COC(C[C@H](O)[C@@H](C)[C@H](O)COCc1ccccc1)OC`, the “activity change, negative = growth inhibition” value was inactive: -1.15%.
In the case of `O=[N+]([O-])c1cccc2cn[nH]c12`, the Potency entry was “inactive”.
Same read-out and setting: under `O=C(N/N=C(\c1ccccc1)c1ccccn1)c1cccc([N+](=O)[O-])c1` stands active: 1.16 µM.
Take `CCNC(=O)/N=C1/NC(=O)C(C(C)C)O1` (centres undefined): the “activity change, negative = growth inhibition” value was inactive: 30.7%.
For `Cc1ccc(/C=N/Nc2ccnc3cc(Cl)ccc23)c(C)c1`, the Potency was active: 6.51 µM.
As to `O=C(COC(=O)c1cc(Br)ccc1O)NCC1CCCO1` (centres undefined), the “activity change, negative = growth inhibition” value was inactive: 34.8%.
Turning to `CN(C)c1nc(N(C)C)nc(N(C)C)n1`, the Potency result was “inactive”.
For `CCO[C@@H]1OC(C(=O)N2CCN(Cc3ccccc3)CC2)=C[C@H](C)[C@H]1CCCO`, the “activity change, negative = growth inhibition” value is inactive: -7.9%.
In the case of `OC1C(O)C(O)C(O)C(O)C1O` (centres undefined), the Potency entry is “inactive”.
For the molecule `CC12CCC(=O)C=C1CCC1C2CCC2(C)C1CCC2(O)C(=O)CO` (centres undefined), the “activity change, negative = growth inhibition” value was inactive: -5.81%.
Same read-out and setting: with `CC(C)N1CCN(c2ccncc2S(=O)(=O)N2CCCCC2)CC1` the figure was inactive: 80.1%.
On to `CC1CCN(S(=O)(=O)c2ccc3c(c2)N(CC(=O)NCCCN2CCCC(C)C2)C(=O)CS3)CC1` (centres undefined), for which the “activity change, negative = growth inhibition” value was inactive: -12.2%.
For `CCC1COCCS(=O)(=O)N1Cc1ccc(F)cc1` (centres undefined), the “activity change, negative = growth inhibition” value was inactive: 3.78%.
On the same count and under the same terms, under `CCN(CC)CCc1nc(-c2ccccc2)no1` stands inactive: 2.65% [at 21.1 µM].
As for `CCCCc1nc(Cl)c(CO)n1Cc1ccc(-c2ccccc2-c2nn[nH]n2)cc1`, the “activity change, negative = growth inhibition” value is inactive: 2.84%.
Take `O=S(=O)(c1ccccc1)c1nc(-c2ccc(F)cc2)oc1N1CCOCC1`: the “activity change, negative = growth inhibition” value was inactive: -8.55%.
The same measure, in the same setting: under `CC[C@]12CCCN3CCc4c(n(c5ccccc45)[C@](O)(C(=O)OC)C1)[C@@H]32` stands inactive: -15.8%; under `CCCc1nc2c(s1)CCc1onc(-c3cccc([N+](=O)[O-])c3)c1-2`, inactive: 32%.
Consider `CC1(C)[C@@H](O)CC[C@]2(C)C3C(=O)C=C4C5C[C@@](C)(C(=O)O)CC[C@]5(C)CC[C@@]4(C)[C@]3(C)CC[C@@H]12` (some centres undefined), for which the “activity change, negative = growth inhibition” value is inactive: 5.38%.
In the case of `CCN1CCN(Cc2ccc(NC(=O)c3cc(NC(=O)C4=NN(c5ccccc5)C(=O)C4)cc(OC)c3)cc2C(F)(F)F)CC1`, the “activity change, negative = growth inhibition” value is inactive: -1.77%.
As to `COc1ccc(SCCN2CC[C@@H](C)CCC2=O)cc1`, the “activity change, negative = growth inhibition” value is inactive: -26.4%.
